# The list shows a part of the results.
# B1: ACA (Amaranthus caudatus) (protein)
# chain: MAGLPVIMCLKSNNNQKYLRYQSDNIQQYGLLQFSADKILDPLAQFEVEPSKTYDGLVHIKSRYTNKYLVRWSPNHYWITASANEPDENKSNWACTLFKPLYVEEGNMKKVRLLHVQLGHYTQNYTVGGSFVSYLFAESSQIDTGSKDVFHVIDWKSIFQFPKRYVTFKGNNGKYLGVITINQLPCLQFGYDNLNDPKVAHEMFVTSNGTICIKSTYMNKFWRLSTDDWILVDGNDPRETNEAAALFRSDVHDFNVISLLNMQKTWFIKRFTSGKPGFINCMNAATQNVDETAILEIIELGSNN
# Tests used:
# Test in all cases: glycan array binding signal (z-score within array); higher = stronger binding
# Details in all cases: glycan notation: IUPAC condensed, linker removed
# [1] = molecular target: GalNAc(b1-4)GlcNAc(b1-2)Man(a1-3)[GalNAc(b1-4)GlcNAc(b1-2)Man(a1-6)]Man(b1-4)GlcNAc(b1-4)GlcNAc
# Summary of the method: (§1)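 Glycan array binding is given as a within-array Z-score, which can be read as non-binding when negative. The arrays, 3228 of them, came from the Consortium for Functional Glycomics database and were retained only where the protein sequence was available. Z-scores were averaged across arrays of the same protein sequence at different concentrations or buffers and across linkers.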
# [2] = molecular target: GalNAc(b1-4)GlcNAc(b1-3)GalNAc(b1-4)GlcNAc
# Summary of the method: as §1
# GalNAc(b1-4)GlcNAc6S = molecular target: GalNAc(b1-4)GlcNAc6S
# Summary of the method: as §1
# GalNAc(b1-6)GalNAc = molecular target: GalNAc(b1-6)GalNAc
# Summary of the method: as §1
# GalNAc3S(b1-4)GlcNAc = molecular target: GalNAc3S(b1-4)GlcNAc
# Summary of the method: as §1
# GalNAc3S(b1-4)GlcNAc3S = molecular target: GalNAc3S(b1-4)GlcNAc3S
# Summary of the method: as §1
# [3] = molecular target: GalNAc3S(b1-4)[Fuc(a1-3)]GlcNAc
# Summary of the method: as §1
# GalNAc4S6S(b1-4)GlcNAc = molecular target: GalNAc4S6S(b1-4)GlcNAc
# Summary of the method: as §1
# GalNAc6S(b1-4)GlcNAc = molecular target: GalNAc6S(b1-4)GlcNAc
# Summary of the method: as §1
# Glc(a1-4)Glc = molecular target: Glc(a1-4)Glc
# Summary of the method: as §1
# [4] = molecular target: Glc(a1-4)Glc(a1-4)Glc(a1-4)Glc
# Summary of the method: as §1
# Glc(a1-6)Glc(a1-6)Glc = molecular target: Glc(a1-6)Glc(a1-6)Glc
# Summary of the method: as §1
# [5] = molecular target: Glc(a1-6)Glc(a1-6)Glc(a1-6)Glc
# Summary of the method: as §1
# Glc(b1-4)Glc = molecular target: Glc(b1-4)Glc
# Summary of the method: as §1
# Glc(b1-6)Glc = molecular target: Glc(b1-6)Glc
# Summary of the method: as §1
# GlcA(b1-3)Gal = molecular target: GlcA(b1-3)Gal
# Summary of the method: as §1
# GlcA(b1-3)GlcNAc = molecular target: GlcA(b1-3)GlcNAc
# Summary of the method: as §1
# GlcA(b1-6)Gal = molecular target: GlcA(b1-6)Gal
# Summary of the method: as §1
# [6] = molecular target: GlcA3S(b1-3)Gal(b1-4)GlcNAc(b1-2)Man
# Summary of the method: as §1
# [7] = molecular target: GlcA3S(b1-3)Gal(b1-4)GlcNAc(b1-3)Gal(b1-4)Glc
# Summary of the method: as §1
# [8] = molecular target: GlcNAc(a1-3)Gal(b1-4)GlcNAc
# Summary of the method: as §1
# [9] = molecular target: GlcNAc(a1-4)Gal(b1-3)GlcNAc
# Summary of the method: as §1
# [10] = molecular target: GlcNAc(a1-4)Gal(b1-4)GalNAc
# Summary of the method: as §1
# [11] = molecular target: GlcNAc(a1-4)Gal(b1-4)GlcNAc
# Summary of the method: as §1
# [12] = molecular target: GlcNAc(a1-4)Gal(b1-4)GlcNAc(b1-3)Gal(b1-4)Glc
# Summary of the method: as §1
# [13] = molecular target: GlcNAc(a1-4)Gal(b1-4)GlcNAc(b1-3)Gal(b1-4)GlcNAc
# Summary of the method: as §1
# [14] = molecular target: GlcNAc(a1-4)Gal(b1-4)GlcNAc(b1-3)Gal(b1-4)GlcNAc(b1-3)Gal(b1-4)GlcNAc
# Summary of the method: as §1
# [15] = molecular target: GlcNAc(a1-4)Gal(b1-4)GlcNAc(b1-3)Gal(b1-4)[Fuc(a1-3)]GlcNAc(b1-3)Gal(b1-4)[Fuc(a1-3)]GlcNAc
# Summary of the method: as §1
# [16] = molecular target: GlcNAc(a1-6)Gal(b1-4)GlcNAc
# Summary of the method: as §1
# [17] = molecular target: GlcNAc(b1-2)Gal(b1-3)GalNAc
# Summary of the method: as §1
# [18] = molecular target: GlcNAc(b1-2)Man(a1-3)[GlcNAc(b1-2)Man(a1-6)]Man(b1-4)GlcNAc(b1-4)GlcNAc
# Summary of the method: as §1
# [19] = molecular target: GlcNAc(b1-2)Man(a1-3)[GlcNAc(b1-2)Man(a1-6)]Man(b1-4)GlcNAc(b1-4)[Fuc(a1-6)]GlcNAc
# Summary of the method: as §1
# [20] = molecular target: GlcNAc(b1-2)Man(a1-3)[GlcNAc(b1-4)][GlcNAc(b1-2)Man(a1-6)]Man(b1-4)GlcNAc(b1-4)GlcNAc
# Summary of the method: as §1
# [21] = molecular target: GlcNAc(b1-2)Man(a1-3)[GlcNAc(b1-4)][GlcNAc(b1-2)Man(a1-6)]Man(b1-4)GlcNAc(b1-4)[Fuc(a1-6)]GlcNAc
# Summary of the method: as §1
# [22] = molecular target: GlcNAc(b1-2)[GlcNAc(b1-4)]Man(a1-3)[GlcNAc(b1-2)Man(a1-6)]Man(b1-4)GlcNAc(b1-4)GlcNAc
# Summary of the method: as §1
# [23] = molecular target: GlcNAc(b1-2)[GlcNAc(b1-4)]Man(a1-3)[GlcNAc(b1-4)][GlcNAc(b1-2)Man(a1-6)]Man(b1-4)GlcNAc(b1-4)GlcNAc
# Summary of the method: as §1
# [24] = molecular target: GlcNAc(b1-2)[GlcNAc(b1-4)]Man(a1-3)[GlcNAc(b1-4)][GlcNAc(b1-2)[GlcNAc(b1-6)]Man(a1-6)]Man(b1-4)GlcNAc(b1-4)GlcNAc
# Summary of the method: as §1
# [25] = molecular target: GlcNAc(b1-2)[GlcNAc(b1-4)]Man(a1-3)[GlcNAc(b1-4)][GlcNAc(b1-2)[GlcNAc(b1-6)]Man(a1-6)]Man(b1-4)GlcNAc(b1-4)[Fuc(a1-6)]GlcNAc
# Summary of the method: as §1
# [26] = molecular target: GlcNAc(b1-2)[GlcNAc(b1-6)]Man(a1-6)[GlcNAc(b1-2)Man(a1-3)]Man(b1-4)GlcNAc(b1-4)GlcNAc
# Summary of the method: as §1
# [27] = molecular target: GlcNAc(b1-2)[GlcNAc(b1-6)]Man(a1-6)[GlcNAc(b1-2)Man(a1-3)]Man(b1-4)GlcNAc(b1-4)[Fuc(a1-6)]GlcNAc
# Summary of the method: as §1
# [28] = molecular target: GlcNAc(b1-2)[GlcNAc(b1-6)]Man(a1-6)[GlcNAc(b1-4)][GlcNAc(b1-2)Man(a1-3)]Man(b1-4)GlcNAc(b1-4)GlcNAc
# Summary of the method: as §1
# GlcNAc(b1-3)Fuc = molecular target: GlcNAc(b1-3)Fuc
# Summary of the method: as §1
# GlcNAc(b1-3)Gal = molecular target: GlcNAc(b1-3)Gal
# Summary of the method: as §1
# [29] = molecular target: GlcNAc(b1-3)Gal(b1-3)GalNAc
# Summary of the method: as §1
# GlcNAc(b1-3)Gal(b1-4)Glc = molecular target: GlcNAc(b1-3)Gal(b1-4)Glc
# Summary of the method: as §1
binder,measurement,setting,value
B1,glycan array binding signal (z-score),[1],2
same,glycan array binding signal (z-score),[2],-0.372
same,glycan array binding signal (z-score),GalNAc(b1-4)GlcNAc6S,-0.319
same,glycan array binding signal (z-score),GalNAc(b1-6)GalNAc,-0.432
same,glycan array binding signal (z-score),GalNAc3S(b1-4)GlcNAc,-0.639
same,glycan array binding signal (z-score),GalNAc3S(b1-4)GlcNAc3S,-0.917
same,glycan array binding signal (z-score),[3],-0.439
same,glycan array binding signal (z-score),GalNAc4S6S(b1-4)GlcNAc,-0.719
same,glycan array binding signal (z-score),GalNAc6S(b1-4)GlcNAc,-0.811
same,glycan array binding signal (z-score),Glc(a1-4)Glc,0.351
same,glycan array binding signal (z-score),[4],-0.121
same,glycan array binding signal (z-score),Glc(a1-6)Glc(a1-6)Glc,0.053
same,glycan array binding signal (z-score),[5],0.16
same,glycan array binding signal (z-score),Glc(b1-4)Glc,0.133
same,glycan array binding signal (z-score),Glc(b1-6)Glc,-0.226
same,glycan array binding signal (z-score),GlcA(b1-3)Gal,0.104
same,glycan array binding signal (z-score),GlcA(b1-3)GlcNAc,0.057
same,glycan array binding signal (z-score),GlcA(b1-6)Gal,0.06
same,glycan array binding signal (z-score),[6],-0.456
same,glycan array binding signal (z-score),[7],-0.474
same,glycan array binding signal (z-score),[8],-0.278
same,glycan array binding signal (z-score),[9],-0.326
same,glycan array binding signal (z-score),[10],-0.368
same,glycan array binding signal (z-score),[11],-0.175
same,glycan array binding signal (z-score),[12],-0.162
same,glycan array binding signal (z-score),[13],-0.777
same,glycan array binding signal (z-score),[14],-0.532
same,glycan array binding signal (z-score),[15],0.105
same,glycan array binding signal (z-score),[16],-0.176
same,glycan array binding signal (z-score),[17],-0.621
same,glycan array binding signal (z-score),[18],-0.256
same,glycan array binding signal (z-score),[19],0.223
same,glycan array binding signal (z-score),[20],-0.893
same,glycan array binding signal (z-score),[21],-0.458
same,glycan array binding signal (z-score),[22],-0.445
same,glycan array binding signal (z-score),[23],-0.545
same,glycan array binding signal (z-score),[24],-0.641
same,glycan array binding signal (z-score),[25],-0.327
same,glycan array binding signal (z-score),[26],-0.128
same,glycan array binding signal (z-score),[27],-0.087
same,glycan array binding signal (z-score),[28],-0.472
same,glycan array binding signal (z-score),GlcNAc(b1-3)Fuc,0.07
same,glycan array binding signal (z-score),GlcNAc(b1-3)Gal,0.094
same,glycan array binding signal (z-score),[29],-0.143
same,glycan array binding signal (z-score),GlcNAc(b1-3)Gal(b1-4)Glc,-0.224
